Test results published in PMC8708088.
Results are given in words; binding and its absence hold for the method and conditions named. In cells and extracts the contact can be indirect. Some results given as binding are weak or reduced against the parent protein; the word gives no strength.

Sequences of proteins named here, by UniProt entry; tags and fusion partners are left off.
UniProt P04491: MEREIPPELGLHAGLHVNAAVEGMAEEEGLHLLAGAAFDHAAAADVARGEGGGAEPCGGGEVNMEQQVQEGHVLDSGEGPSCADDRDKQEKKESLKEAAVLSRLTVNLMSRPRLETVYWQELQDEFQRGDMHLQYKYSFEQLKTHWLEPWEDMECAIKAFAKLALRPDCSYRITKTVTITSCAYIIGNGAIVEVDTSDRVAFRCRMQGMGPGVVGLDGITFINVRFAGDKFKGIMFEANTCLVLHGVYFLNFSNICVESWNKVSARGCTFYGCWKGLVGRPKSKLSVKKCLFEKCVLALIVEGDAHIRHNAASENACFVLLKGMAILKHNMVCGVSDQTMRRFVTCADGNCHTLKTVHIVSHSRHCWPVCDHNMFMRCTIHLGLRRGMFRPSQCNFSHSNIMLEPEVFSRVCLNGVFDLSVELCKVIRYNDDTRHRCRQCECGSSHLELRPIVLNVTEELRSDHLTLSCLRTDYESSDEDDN
UniProt P78527: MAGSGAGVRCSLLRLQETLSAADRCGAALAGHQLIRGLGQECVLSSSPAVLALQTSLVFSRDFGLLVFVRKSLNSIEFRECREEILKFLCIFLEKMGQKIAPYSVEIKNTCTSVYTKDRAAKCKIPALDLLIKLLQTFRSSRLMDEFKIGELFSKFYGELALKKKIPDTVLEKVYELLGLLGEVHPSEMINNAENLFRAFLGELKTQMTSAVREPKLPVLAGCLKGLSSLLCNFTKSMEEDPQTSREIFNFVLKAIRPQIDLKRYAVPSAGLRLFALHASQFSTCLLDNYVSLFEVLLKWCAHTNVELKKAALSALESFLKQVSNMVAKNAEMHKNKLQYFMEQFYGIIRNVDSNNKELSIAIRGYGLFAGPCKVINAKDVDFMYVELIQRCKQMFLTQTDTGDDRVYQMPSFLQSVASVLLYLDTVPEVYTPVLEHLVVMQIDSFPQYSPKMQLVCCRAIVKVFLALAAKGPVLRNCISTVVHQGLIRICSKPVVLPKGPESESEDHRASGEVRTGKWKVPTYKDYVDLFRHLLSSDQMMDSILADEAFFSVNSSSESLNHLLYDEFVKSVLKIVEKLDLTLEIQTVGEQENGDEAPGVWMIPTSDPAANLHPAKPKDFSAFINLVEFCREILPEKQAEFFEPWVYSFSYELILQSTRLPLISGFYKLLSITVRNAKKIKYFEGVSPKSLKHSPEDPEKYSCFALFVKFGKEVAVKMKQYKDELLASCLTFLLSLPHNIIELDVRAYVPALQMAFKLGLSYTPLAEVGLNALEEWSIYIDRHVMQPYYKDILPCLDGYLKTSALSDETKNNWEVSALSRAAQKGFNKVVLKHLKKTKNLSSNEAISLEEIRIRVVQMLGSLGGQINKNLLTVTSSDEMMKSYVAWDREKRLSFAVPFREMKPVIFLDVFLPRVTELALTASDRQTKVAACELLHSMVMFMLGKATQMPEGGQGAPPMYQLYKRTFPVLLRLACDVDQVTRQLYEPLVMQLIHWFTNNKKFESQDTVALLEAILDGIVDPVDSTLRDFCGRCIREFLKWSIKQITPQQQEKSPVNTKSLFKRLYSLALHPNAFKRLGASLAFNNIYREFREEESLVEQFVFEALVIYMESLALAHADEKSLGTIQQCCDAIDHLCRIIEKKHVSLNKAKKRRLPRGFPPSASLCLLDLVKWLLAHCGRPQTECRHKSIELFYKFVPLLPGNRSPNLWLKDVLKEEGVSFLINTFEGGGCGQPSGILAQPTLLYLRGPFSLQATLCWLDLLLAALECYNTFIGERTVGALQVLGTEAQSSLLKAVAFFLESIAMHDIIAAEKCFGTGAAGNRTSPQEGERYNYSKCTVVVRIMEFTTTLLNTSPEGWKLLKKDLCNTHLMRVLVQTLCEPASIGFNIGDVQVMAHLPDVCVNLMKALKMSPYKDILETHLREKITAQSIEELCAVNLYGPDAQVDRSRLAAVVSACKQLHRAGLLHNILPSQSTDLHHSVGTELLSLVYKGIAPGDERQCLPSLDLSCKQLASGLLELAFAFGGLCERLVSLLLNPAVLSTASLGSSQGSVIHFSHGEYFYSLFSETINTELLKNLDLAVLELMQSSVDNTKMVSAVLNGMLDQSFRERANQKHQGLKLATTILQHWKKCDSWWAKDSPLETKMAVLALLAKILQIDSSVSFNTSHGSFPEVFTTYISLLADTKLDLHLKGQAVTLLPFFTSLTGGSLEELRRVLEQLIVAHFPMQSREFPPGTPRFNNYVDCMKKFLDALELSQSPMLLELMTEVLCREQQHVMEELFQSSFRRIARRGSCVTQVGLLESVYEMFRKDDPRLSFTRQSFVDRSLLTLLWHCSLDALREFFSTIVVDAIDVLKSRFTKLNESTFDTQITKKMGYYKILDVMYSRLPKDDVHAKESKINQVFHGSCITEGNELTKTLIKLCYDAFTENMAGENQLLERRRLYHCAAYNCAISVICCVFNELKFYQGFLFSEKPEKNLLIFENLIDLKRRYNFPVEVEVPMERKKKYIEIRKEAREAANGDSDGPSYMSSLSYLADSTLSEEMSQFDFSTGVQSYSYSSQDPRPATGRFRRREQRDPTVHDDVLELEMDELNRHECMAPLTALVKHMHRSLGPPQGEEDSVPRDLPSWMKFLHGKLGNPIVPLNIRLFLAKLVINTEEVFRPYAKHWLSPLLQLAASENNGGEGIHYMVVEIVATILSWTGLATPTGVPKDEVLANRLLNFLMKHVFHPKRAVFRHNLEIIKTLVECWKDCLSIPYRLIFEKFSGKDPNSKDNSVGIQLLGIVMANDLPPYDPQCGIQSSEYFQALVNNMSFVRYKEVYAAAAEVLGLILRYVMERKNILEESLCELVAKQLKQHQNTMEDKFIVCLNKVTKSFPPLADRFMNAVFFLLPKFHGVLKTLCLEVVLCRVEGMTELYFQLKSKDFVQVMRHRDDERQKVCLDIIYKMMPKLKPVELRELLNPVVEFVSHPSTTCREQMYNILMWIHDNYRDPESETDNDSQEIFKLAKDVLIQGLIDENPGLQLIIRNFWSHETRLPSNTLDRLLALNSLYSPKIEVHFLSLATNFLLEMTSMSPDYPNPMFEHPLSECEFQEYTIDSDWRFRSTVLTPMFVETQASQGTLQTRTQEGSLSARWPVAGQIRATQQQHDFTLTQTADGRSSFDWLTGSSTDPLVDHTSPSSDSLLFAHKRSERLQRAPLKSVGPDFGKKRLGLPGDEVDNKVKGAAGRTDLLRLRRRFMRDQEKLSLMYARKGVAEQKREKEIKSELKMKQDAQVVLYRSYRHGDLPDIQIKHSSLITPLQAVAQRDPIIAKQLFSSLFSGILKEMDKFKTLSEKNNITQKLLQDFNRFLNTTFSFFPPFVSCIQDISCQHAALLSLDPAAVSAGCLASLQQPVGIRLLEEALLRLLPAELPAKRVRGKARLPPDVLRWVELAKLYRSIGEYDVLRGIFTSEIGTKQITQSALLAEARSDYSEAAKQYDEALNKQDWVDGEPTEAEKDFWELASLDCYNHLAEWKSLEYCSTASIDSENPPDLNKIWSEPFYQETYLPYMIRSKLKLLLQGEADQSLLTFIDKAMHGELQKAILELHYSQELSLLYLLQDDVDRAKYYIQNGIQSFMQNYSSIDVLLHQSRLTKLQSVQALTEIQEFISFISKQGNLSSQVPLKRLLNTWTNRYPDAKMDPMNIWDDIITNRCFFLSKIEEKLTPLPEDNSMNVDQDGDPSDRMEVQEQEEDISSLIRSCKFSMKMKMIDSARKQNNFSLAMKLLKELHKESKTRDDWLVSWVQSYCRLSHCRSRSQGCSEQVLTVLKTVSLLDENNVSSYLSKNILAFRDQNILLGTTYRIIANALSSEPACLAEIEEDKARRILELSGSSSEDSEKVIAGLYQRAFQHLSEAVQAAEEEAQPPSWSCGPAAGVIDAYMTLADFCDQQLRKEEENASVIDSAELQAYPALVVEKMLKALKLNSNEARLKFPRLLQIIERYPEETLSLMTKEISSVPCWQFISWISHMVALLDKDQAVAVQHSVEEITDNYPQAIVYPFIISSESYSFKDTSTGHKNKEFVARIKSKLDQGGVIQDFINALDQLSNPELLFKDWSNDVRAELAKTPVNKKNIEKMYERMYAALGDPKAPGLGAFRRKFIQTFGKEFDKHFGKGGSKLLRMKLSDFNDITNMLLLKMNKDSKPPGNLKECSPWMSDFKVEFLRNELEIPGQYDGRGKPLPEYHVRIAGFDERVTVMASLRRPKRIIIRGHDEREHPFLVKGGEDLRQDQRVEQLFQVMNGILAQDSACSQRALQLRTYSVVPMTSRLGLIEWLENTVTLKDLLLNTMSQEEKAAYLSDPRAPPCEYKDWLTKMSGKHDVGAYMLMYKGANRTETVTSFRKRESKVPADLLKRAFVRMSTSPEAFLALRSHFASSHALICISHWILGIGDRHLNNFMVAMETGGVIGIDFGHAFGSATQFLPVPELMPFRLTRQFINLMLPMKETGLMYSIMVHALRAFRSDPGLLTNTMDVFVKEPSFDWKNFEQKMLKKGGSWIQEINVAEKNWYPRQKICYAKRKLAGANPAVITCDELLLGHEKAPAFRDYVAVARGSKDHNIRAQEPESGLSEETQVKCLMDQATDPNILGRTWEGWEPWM
UniProt P49736: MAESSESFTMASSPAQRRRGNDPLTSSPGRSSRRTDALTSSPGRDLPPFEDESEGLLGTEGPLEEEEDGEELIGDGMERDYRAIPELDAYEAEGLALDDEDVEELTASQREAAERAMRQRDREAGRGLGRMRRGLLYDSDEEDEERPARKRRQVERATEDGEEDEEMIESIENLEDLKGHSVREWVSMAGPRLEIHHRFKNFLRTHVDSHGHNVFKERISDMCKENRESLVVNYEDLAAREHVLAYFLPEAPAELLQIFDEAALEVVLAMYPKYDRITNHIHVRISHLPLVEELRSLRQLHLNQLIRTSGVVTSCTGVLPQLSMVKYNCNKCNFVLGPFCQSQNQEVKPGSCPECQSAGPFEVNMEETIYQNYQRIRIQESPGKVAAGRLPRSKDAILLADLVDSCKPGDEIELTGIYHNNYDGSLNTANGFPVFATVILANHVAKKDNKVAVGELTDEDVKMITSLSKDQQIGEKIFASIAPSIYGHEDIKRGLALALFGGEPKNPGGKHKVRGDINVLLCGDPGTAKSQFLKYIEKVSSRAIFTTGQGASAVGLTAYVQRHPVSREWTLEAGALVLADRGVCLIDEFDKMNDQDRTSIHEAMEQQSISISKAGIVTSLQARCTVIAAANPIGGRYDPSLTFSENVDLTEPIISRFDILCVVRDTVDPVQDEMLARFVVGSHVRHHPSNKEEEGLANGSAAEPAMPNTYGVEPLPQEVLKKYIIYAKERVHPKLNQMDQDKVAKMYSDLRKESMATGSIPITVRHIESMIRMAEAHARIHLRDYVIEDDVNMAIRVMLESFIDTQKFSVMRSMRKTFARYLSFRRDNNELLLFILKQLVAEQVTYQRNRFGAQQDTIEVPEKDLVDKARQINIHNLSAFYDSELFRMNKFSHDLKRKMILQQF
UniProt O60934: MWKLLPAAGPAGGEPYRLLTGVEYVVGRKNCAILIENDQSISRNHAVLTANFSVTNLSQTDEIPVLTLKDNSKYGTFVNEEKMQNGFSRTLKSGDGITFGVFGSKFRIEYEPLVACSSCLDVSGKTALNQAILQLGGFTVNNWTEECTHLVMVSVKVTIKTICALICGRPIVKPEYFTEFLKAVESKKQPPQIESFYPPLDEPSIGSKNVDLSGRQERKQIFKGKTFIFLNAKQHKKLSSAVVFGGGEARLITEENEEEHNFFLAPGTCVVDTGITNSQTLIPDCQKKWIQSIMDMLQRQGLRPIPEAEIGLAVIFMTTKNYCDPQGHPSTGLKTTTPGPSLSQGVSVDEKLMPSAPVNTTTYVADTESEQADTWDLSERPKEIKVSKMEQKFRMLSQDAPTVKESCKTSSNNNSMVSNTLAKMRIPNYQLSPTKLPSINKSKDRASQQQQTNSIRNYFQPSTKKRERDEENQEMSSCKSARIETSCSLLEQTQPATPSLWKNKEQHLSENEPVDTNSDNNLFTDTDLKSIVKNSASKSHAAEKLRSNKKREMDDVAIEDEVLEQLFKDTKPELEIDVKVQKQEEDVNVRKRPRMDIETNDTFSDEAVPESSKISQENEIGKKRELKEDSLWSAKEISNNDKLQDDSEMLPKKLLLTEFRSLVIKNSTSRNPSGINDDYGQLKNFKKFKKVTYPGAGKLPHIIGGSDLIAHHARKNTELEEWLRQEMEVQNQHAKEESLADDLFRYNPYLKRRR
UniProt P12004: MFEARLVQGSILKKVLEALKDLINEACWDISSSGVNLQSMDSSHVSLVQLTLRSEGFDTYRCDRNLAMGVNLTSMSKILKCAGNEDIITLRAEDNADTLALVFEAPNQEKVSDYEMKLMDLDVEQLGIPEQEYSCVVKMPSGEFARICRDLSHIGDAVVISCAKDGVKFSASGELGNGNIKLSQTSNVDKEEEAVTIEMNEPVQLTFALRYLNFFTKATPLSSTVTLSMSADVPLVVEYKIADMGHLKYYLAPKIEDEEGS

B1: MCM3 (protein, UniProt P25205 1-808)
chain: MAGTVVLDDVELREAQRDYLDFLDDEEDQGIYQSKVRELISDNQYRLIVNVNDLRRKNEKRANRLLNNAFEELVAFQRALKDFVASIDATYAKQYEEFYVGLEGSFGSKHVSPRTLTSCFLSCVVCVEGIVTKCSLVRPKVVRSVHYCPATKKTIERRYSDLTTLVAFPSSSVYPTKDEENNPLETEYGLSVYKDHQTITIQEMPEKAPAGQLPRSVDVILDDDLVDKAKPGDRVQVVGTYRCLPGKKGGYTSGTFRTVLIACNVKQMSKDAQPSFSAEDIAKIKKFSKTRSKDIFDQLAKSLAPSIHGHDYVKKAILCLLLGGVERDLENGSHIRGDINILLIGDPSVAKSQLLRYVLCTAPRAIPTTGRGSSGVGLTAAVTTDQETGERRLEAGAMVLADRGVVCIDEFDKMSDMDRTAIHEVMEQGRVTIAKAGIHARLNARCSVLAAANPVYGRYDQYKTPMENIGLQDSLLSRFDLLFIMLDQMDPEQDREISDHVLRMHRYRAPGEQDGDAMPLGSAVDILATDDPNFSQEDQQDTQIYEKHDNLLHGTKKKKEKMVSAAFMKKYIHVAKIIKPVLTQESATYIAEEYSRLRSQDSMSSDTARTSPVTARTLETLIRLATAHAKARMSKTVDLQDAEEAVELVQYAYFKKVLEKEKKRKKRSEDESETEDEEEKSQEDQEQKRKRRKTRQPDAKDGDSYDPYDFSDTEEEMPQVHTPKTADSQETKESQKVELSESRLKAFKVALLDVFREAHAQSIGMNRLTESINRDSEEPFSSVEIQAALSKMQDDNQVMVSEGIIFLI
B2: ORC3 (protein, UniProt Q9UBD5 1-711)
chain: MATSSMSKGCFVFKPNSKKRKISLPIEDYFNKGKNEPEDSKLRFETYQLIWQQMKSENERLQEELNKNLFDNLIEFLQKSHSGFQKNSRDLGGQIKLREIPTAALVLGVNVTDHDLTFGSLTEALQNNVTPYVVSLQAKDCPDMKHFLQKLISQLMDCCVDIKSKEEESVHVTQRKTHYSMDSLSSWYMTVTQKTDPKMLSKKRTTSSQWQSPPVVVILKDMESFATKVLQDFIIISSQHLHEFPLILIFGIATSPIIIHRLLPHAVSSLLCIELFQSLSCKEHLTTVLDKLLLTTQFPFKINEKVLQVLTNIFLYHDFSVQNFIKGLQLSLLEHFYSQPLSVLCCNLPEAKRRINFLSNNQCENIRRLPSFRRYVEKQASEKQVALLTNERYLKEETQLLLENLHVYHMNYFLVLRCLHKFTSSLPKYPLGRQIRELYCTCLEKNIWDSEEYASVLQLLRMLAKDELMTILEKCFKVFKSYCENHLGSTAKRIEEFLAQFQSLDETKEEEDASGSQPKGLQKTDLYHLQKSLLEMKELRRSKKQTKFEVLRENVVNFIDCLVREYLLPPETQPLHEVVYFSAAHALREHLNAAPRIALHTALNNPYYYLKNEALKSEEGCIPNIAPDICIAYKLHLECSRLINLVDWSEAFATVVTAAEKMDANSATSEEMNEIIHARFIRAVSELELLGFIKPTKQKTDHVARLTWGGC
B3: cdc45 (protein, UniProt O75419 1-566)
chain: MFVSDFRKEFYEVVQSQRVLLFVASDVDALCACKILQALFQCDHVQYTLVPVSGWQELETAFLEHKEQFHYFILINCGANVDLLDILQPDEDTIFFVCDTHRPVNVVNVYNDTQIKLLIKQDDDLEVPAYEDIFRDEEEDEEHSGNDSDGSEPSEKRTRLEEEIVEQTMRRRQRREWEARRRDILFDYEQYEYHGTSSAMVMFELAWMLSKDLNDMLWWAIVGLTDQWVQDKITQMKYVTDVGVLQRHVSRHNHRNEDEENTLSVDCTRISFEYDLRLVLYQHWSLHDSLCNTSYTAARFKLWSVHGQKRLQEFLADMGLPLKQVKQKFQAMDISLKENLREMIEESANKFGMKDMRVQTFSIHFGFKHKFLASDVVFATMSLMESPEKDGSGTDHFIQALDSLSRSNLDKLYHGLELAKKQLRATQQTIASCLCTNLVISQGPFLYCSLMEGTPDVMLFSRPASLSLLSKHLLKSFVCSTKNRRCKLLPLVMAAPLSMEHGTVTVVGIPPETDSSDRKNFFGRAFEKAAESTSSRMLHNHFDLSVIELKAEDRSKFLDALISLLS
B4: ORC2 (protein, UniProt Q13416 1-577)
chain: MSKPELKEDKMLEVHFVGDDDVLNHILDREGGAKLKKERAQLLVNPKKIIKKPEYDLEEDDQEVLKDQNYVEIMGRDVQESLKNGSATGGGNKVYSFQNRKHSEKMAKLASELAKTPQKSVSFSLKNDPEITINVPQSSKGHSASDKVQPKNNDKSEFLSTAPRSLRKRLIVPRSHSDSESEYSASNSEDDEGVAQEHEEDTNAVIFSQKIQAQNRVVSAPVGKETPSKRMKRDKTSDLVEEYFEAHSSSKVLTSDRTLQKLKRAKLDQQTLRNLLSKVSPSFSAELKQLNQQYEKLFHKWMLQLHLGFNIVLYGLGSKRDLLERFRTTMLQDSIHVVINGFFPGISVKSVLNSITEEVLDHMGTFRSILDQLDWIVNKFKEDSSLELFLLIHNLDSQMLRGEKSQQIIGQLSSLHNIYLIASIDHLNAPLMWDHAKQSLFNWLWYETTTYSPYTEETSYENSLLVKQSGSLPLSSLTHVLRSLTPNARGIFRLLIKYQLDNQDNPSYIGLSFQDFYQQCREAFLVNSDLTLRAQLTEFRDHKLIRTKKGTDGVEYLLIPVDNGTLTDFLEKEEEEA
B5: ORC6 (protein, UniProt Q9Y5N6 1-252)
chain: MGSELIGRLAPRLGLAEPDMLRKAEEYLRLSRVKCVGLSARTTETSSAVMCLDLAASWMKCPLDRAYLIKLSGLNKETYQSCLKSFECLLGLNSNIGIRDLAVQFSCIEAVNMASKILKSYESSLPQTQQVDLDLSRPLFTSAALLSACKILKLKVDKNKMVATSGVKKAIFDRLCKQLEKIGQQVDREPGDVATPPRKRKKIVVEAPAKEMEKVEEMPHKPQKDEDLTQDYEEWKRKILENAASAQKATAE

Target: adenovirus 12 early region 1B 55K protein (adenovirus 12) (UniProt P04491)
Assay: co-IP

Molecule | binding
BLM (from UniProt P54132 1-1417) | binds
DNA-PK catalytic subunit (from UniProt P78527 1-4128) | binds
MCM2 (from UniProt P49736 1-904) | no binding
NBS1 (from UniProt O60934 1-754) | binds
PCNA (from UniProt P12004 1-261) | no binding
TICRR (from UniProt Q7Z2Z1 1-1910) | binds
p53 (from UniProt P04637 1-393) | binds
B1 | binds
B2 | binds
B3 | binds
B4 | no binding
B5 | no binding
